From paper PMC4336329 (PLoS ONE, 2015) come the findings set out here.

About 14,000 (4.5%) of roughly 310,000 compounds showed an effect of 50% or more. The effect is printed as a negative number. This is one part of the list.
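Also: peak tail current of the secondary pulse compared with the same well before compound.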

In the assay the target is human ether-à-go-go-related gene (hERG) potassium channel (human, UniProt Q12809). The assay is described as follows: primary screen, population patch clamp on CHO cells stably expressing hERG.
human ether-à-go-go-related gene (hERG) potassium channel, sequence (Q12809 whole entry, looked up): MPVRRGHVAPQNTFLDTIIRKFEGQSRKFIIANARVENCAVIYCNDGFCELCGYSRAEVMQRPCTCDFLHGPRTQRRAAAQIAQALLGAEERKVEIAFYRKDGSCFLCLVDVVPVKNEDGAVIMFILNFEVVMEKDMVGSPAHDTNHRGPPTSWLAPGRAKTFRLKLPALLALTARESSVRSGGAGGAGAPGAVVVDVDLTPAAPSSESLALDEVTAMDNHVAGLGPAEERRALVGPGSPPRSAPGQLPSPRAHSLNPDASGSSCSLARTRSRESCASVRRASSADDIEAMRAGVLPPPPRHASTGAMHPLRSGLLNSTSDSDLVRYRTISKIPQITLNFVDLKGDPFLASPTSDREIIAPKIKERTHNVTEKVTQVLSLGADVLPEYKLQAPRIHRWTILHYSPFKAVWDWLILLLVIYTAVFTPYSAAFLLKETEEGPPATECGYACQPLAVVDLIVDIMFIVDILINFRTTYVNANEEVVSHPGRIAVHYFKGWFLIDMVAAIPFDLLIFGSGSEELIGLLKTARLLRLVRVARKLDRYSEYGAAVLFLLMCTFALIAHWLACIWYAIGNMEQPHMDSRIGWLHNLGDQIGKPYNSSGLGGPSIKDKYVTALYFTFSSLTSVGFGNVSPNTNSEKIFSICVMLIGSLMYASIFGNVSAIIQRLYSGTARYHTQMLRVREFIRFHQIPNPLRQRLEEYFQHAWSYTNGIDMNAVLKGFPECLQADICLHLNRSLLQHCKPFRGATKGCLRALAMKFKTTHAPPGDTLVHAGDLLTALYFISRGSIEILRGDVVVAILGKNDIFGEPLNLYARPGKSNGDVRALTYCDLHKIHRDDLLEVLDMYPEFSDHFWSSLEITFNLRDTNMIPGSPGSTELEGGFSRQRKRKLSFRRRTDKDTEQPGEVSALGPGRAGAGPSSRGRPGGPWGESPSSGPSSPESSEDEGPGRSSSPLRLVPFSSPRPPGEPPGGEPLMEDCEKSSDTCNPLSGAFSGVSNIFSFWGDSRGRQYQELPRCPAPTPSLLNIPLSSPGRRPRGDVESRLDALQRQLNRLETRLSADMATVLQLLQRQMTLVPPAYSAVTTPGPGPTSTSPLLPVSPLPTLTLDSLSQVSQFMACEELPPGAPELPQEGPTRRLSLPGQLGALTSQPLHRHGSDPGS
In the case of `O=c1c2ccccc2nc(-c2ccco2)n1-c1cccnc1`, the “hERG current change (%, negative = inhibition) at 10uM” value is -5.18%.
As to `CCOc1ccc(C(C)NC(=O)Cc2ccccc2)cc1OCC` (centres unmarked), the “hERG current change (%, negative = inhibition) at 10uM” value is 11.4%.
In the case of `COc1ccccc1NC(=O)c1cc(Sc2nncn2C)nc2ccccc12`, the “hERG current change (%, negative = inhibition) at 10uM” value is on record as -14.7%.
In the case of `COc1cc(C(=O)Nc2sc3c(c2C(=O)NCc2ccco2)CCCC3)cc(OC)c1OC`, the “hERG current change (%, negative = inhibition) at 10uM” value turned out to be 13.6%.
On to `O=C(N/N=C/c1c(O)n(-c2cccc3ccccc23)c(=O)[nH]c1=O)c1ccncc1`, for which the “hERG current change (%, negative = inhibition) at 10uM” value was determined as 3.58%.
`Cc1ccc(NC(=O)CSc2nc(=O)n(CCCN(C)C)c3c2CCC3)c(C)c1`: the “hERG current change (%, negative = inhibition) at 10uM” value is reported as -50.6%.
For the compound `CCOC(=O)c1c(C)n(Cc2ccccc2)c2ccc(OCC(O)Cn3nc(C)cc3C)cc12` (centres unmarked), the “hERG current change (%, negative = inhibition) at 10uM” value is 10.8%.
Take `O=C(CCN1C(=O)S/C(=C\c2cccs2)C1=O)NC1=NCCS1`: the “hERG current change (%, negative = inhibition) at 10uM” value was -10.6%.
Regarding `Cc1cc(NC(=O)CCC(=O)N(Cc2cccs2)C(C(=O)NC2CCCC2)c2ccncc2)no1` (centres unmarked), the “hERG current change (%, negative = inhibition) at 10uM” value is listed as 8.81%.
`Cc1c(NC(=O)Nc2cccc(F)c2)c(=O)n(-c2ccccc2)n1C`: the “hERG current change (%, negative = inhibition) at 10uM” value is reported as -1.4%.
Take `O=C(Nc1ccon1)c1ccc(F)c(S(=O)(=O)N2CCCCC2)c1`: the “hERG current change (%, negative = inhibition) at 10uM” value is listed as 14%.
In the case of `O=c1[nH]c(=O)n(C2CCCCCC2)c(O)c1C=NC1CCN(Cc2ccccc2)CC1` it was -53.2%.
As to `CCN(CC)S(=O)(=O)c1ccc2c(c1)[nH]c(=S)n2CC`, the “hERG current change (%, negative = inhibition) at 10uM” value is 4.12%.
For the compound `Cc1cc(OCC(=O)Nc2nnc(C3CC3)s2)ccc1C(C)C`, the “hERG current change (%, negative = inhibition) at 10uM” value came out at 11.3%.
Turning to `CC(C)(C)C(=O)N1CCc2cc(-c3csc(N)n3)ccc21`, the “hERG current change (%, negative = inhibition) at 10uM” value was -4.87%.
Then `COc1ccc(S(=O)(=O)N(Cc2ccccc2)c2ccccc2C(=O)O)cc1`, with 31.8%.
Take `Cc1ccccc1-n1nc2c(c1NC(=O)c1ccc3c(c1)OCO3)CS(=O)(=O)C2`: the “hERG current change (%, negative = inhibition) at 10uM” value is given as -17.6%.
For `COc1ccc(S(=O)(=O)N2CCC(C(=O)N3CCCCC3)CC2)cc1Cl`, the “hERG current change (%, negative = inhibition) at 10uM” value was -20.7%.
As to `CC(C)c1ccc(C2(C)NC(=O)N(CC(=O)NC3(C#N)CCCC3)C2=O)cc1` (centres unmarked), the “hERG current change (%, negative = inhibition) at 10uM” value is given as -1.08%.
Regarding `COCCN1Cc2cccc(C(=O)Nc3cccnc3)c2C1=O`, the “hERG current change (%, negative = inhibition) at 10uM” value is on record as -32.6%.
In the case of `COc1ccc(-n2c(-c3ccc(Br)cc3)c[n+]3c2SC(C)C3)cc1.[Br-]` (centres unmarked), the “hERG current change (%, negative = inhibition) at 10uM” value is -72.6%.
In the case of `Cc1ccc(CN(C)c2nc(-c3cccnc3)nc3ccccc23)o1`, the “hERG current change (%, negative = inhibition) at 10uM” value was determined as 12.7%.
With `CS(=O)(=O)CCC(C(=O)Nc1ccc2c(c1)OCO2)N1Cc2ccccc2C1=O` (centres unmarked), the “hERG current change (%, negative = inhibition) at 10uM” value is given as 15.4%.
